The values that follow come from publication PMC5303829, “A CAF40-binding motif facilitates recruitment of the CCR4-NOT complex to mRNAs targeted by Drosophila Roquin” (Nature Communications, 2017).

Amino acid sequences for entries named in this document (tags omitted).
UniProt Q7JVP2: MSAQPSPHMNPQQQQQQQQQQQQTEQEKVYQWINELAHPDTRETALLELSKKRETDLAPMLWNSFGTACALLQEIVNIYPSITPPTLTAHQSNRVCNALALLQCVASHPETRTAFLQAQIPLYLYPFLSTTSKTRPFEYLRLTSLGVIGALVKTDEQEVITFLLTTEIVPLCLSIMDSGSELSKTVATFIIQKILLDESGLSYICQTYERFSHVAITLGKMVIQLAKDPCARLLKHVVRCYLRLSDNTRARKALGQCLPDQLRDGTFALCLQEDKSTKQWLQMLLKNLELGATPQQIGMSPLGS

Assay [1] addresses T1, GFP-tagged Dm Roquin (full-length, wild-type) (Drosophila melanogaster) (UniProt Q9VV48).
T1 sequence: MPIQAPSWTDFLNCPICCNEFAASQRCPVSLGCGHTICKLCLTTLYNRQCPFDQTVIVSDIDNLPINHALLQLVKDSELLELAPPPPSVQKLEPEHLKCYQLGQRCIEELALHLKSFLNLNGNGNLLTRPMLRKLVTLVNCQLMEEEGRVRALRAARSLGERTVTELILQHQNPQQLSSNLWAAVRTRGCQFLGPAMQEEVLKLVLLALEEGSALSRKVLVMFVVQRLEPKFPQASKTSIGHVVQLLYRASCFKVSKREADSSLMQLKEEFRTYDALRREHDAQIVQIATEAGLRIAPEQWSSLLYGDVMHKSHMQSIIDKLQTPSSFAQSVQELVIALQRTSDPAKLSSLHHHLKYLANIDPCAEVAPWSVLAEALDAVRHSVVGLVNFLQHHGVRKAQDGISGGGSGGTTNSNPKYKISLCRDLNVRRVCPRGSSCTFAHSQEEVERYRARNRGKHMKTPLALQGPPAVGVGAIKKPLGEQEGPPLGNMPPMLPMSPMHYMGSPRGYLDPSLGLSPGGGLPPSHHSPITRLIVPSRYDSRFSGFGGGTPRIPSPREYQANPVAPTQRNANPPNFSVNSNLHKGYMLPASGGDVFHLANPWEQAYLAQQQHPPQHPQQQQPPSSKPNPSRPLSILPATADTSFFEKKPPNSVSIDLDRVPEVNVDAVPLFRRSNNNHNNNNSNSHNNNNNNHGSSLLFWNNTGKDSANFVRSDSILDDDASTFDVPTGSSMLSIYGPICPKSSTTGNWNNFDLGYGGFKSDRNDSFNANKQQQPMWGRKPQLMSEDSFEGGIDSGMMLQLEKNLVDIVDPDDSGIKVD
Briefly: co-IP; GFP-tagged Dm Roquin and HA-tagged CAF40 co-expressed in Dm S2 cells in the presence of HA-tagged CN9BD; lysates treated with RNase A (Fig. 5).

Assay [2] has as its target T2, GFP-tagged Dm Roquin ΔNBM (Drosophila melanogaster) (UniProt Q9VV48).
T2 sequence: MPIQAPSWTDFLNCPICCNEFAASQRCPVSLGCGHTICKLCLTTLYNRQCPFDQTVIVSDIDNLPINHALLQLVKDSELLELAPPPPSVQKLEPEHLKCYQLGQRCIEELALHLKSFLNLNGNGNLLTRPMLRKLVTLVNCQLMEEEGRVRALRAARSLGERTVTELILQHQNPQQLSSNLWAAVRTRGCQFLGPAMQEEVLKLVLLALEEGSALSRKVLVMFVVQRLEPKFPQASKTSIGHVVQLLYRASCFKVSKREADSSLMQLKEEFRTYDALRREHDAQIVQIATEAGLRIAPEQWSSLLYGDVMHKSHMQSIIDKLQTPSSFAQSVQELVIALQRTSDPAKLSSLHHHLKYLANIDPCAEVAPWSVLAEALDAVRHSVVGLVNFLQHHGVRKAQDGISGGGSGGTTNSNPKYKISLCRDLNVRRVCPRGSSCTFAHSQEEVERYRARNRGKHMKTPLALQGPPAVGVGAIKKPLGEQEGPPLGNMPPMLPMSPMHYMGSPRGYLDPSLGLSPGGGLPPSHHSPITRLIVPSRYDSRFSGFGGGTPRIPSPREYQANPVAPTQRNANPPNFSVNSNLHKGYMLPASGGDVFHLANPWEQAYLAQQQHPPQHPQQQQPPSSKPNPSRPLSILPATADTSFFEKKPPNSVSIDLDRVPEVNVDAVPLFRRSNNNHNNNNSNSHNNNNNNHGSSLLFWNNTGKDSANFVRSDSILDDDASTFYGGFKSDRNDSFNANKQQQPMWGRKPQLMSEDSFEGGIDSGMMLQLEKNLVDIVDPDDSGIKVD
The description is as above.

No constants are given. Whether binding was seen depends on the method and setting. Binding seen in cells or lysates may run through a third protein. Some binding calls cover weakened binding; strength is not graded here. Tags and fused reporters may be left off the sequences shown.

As to “HA-tagged Dm CAF40 (full-length, wild-type) (from UniProt Q7JVP2 1-304)”, the binding result in assay [1] and in assay [2] was “binds” throughout.
